{"source": "PubChem BioAssay AID504845", "about": "(National Center for Advancing Translational Sciences (NCATS), 2011)", "note": "The whole screen tested about 390,000 compounds, of which about 150 (0.038%) were called active. The inconclusive results got no clear call from the source; some entries with a clear call stand among them for comparison. Calls follow the shape of the dose curve; as a rule, active = well fitted inhibition curve with a large enough effect; inconclusive = small, poorly fitted or top-dose-only effect; inactive = no such curve, though single readings can be large or run the other way. Potencies of inconclusive entries are doubtful fits and often do not repeat. % is scaled to controls: 0 for no effect and ±100 for the full control effect; potency is read from the fitted curve at half-maximal effect; tags tell the direction and shape of the fitted curve."}
{"biological_target": "Regulator of G-protein signaling 4 (Homo sapiens) (UniProt P49798)", "sequence (P49798 whole entry, looked up)": "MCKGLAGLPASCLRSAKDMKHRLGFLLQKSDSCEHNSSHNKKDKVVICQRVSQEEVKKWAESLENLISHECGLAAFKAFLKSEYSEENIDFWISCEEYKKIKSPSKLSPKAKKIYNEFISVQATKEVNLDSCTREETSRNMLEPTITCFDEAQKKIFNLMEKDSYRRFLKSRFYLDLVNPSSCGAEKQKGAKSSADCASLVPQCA", "assay": "Inhibitors of Regulator of G Protein Signaling (RGS) 4: qHTS; also: nearly all actives have a fitted effect of over 75% in size", "conditions": "Transcreener GDP fluorescence polarization, RGS4-accelerated GTP hydrolysis; series mostly up to 114 µM", "method_in_brief": "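MLSMR compounds (23 nl, pin-transferred) preincubated 10 min at room temperature with a 500nM (2x) first reagent, then RGS4 at 900nM (2x) plus Transcreener GDP mix added; fluorescence polarization (620/688 nm) read before and after 90 min at 30 °C.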"}
{"smiles": "Cc1ccc(-c2nc3ccccn3c2Nc2ccc3c(c2)OCO3)o1", "Potency": "inconclusive: 50.1 µM [inhibitor, partial curve, poor fit]"}
{"smiles": "CSc1ncc(Cl)c(C(=O)Nc2ccc(C)c(C)c2)n1", "Potency": "inactive"}
{"smiles": "O=C1NC(Cc2ccccc2)C(=O)N1Cc1ccccc1", "note": "(centres undefined)", "Potency": "inactive"}
{"smiles": "CCOC(=O)c1ccc(NC(=S)NCc2ccco2)cc1", "Potency": "inactive"}
{"smiles": "COC(=O)C1=C(C)N(c2ccc(OC)cc2)C(C)=C(C(=O)OC)C1c1ccccc1", "Potency": "inactive"}
{"smiles": "Cc1c(C(=O)NCC(c2ccco2)N2CCCC2)sc2ccccc12", "note": "(centres undefined)", "Potency": "inactive"}
{"smiles": "CN(C)c1oc(-c2ccccc2[N+](=O)[O-])nc1C#N", "Potency": "inconclusive: 50.1 µM [inhibitor, partial curve, poor fit]"}
{"smiles": "CC(C)c1ccc(Nc2c(-c3ccco3)nc3ccccn23)cc1", "Potency": "inconclusive: 100 µM [inhibitor, partial curve, poor fit]"}
{"smiles": "O=C(NC1CC1)c1cc(-c2ccco2)nc2ccccc12", "Potency": "inconclusive: 20 µM [inhibitor, full curve, poor fit]"}
{"smiles": "COc1cccc(N2CCN(C(=O)Cn3cnc4onc(-c5ccc(F)cc5)c4c3=O)CC2)c1", "Potency": "inactive"}
{"smiles": "Cc1ccc(C(=O)O)cc1NC(=S)NC(=O)c1ccc(COc2ccccc2)cc1", "Potency": "inconclusive: 56.2 µM [inhibitor, partial curve, poor fit]"}
{"smiles": "Nc1nc(Cl)cc(N2CCC(c3cc(-c4ccc(Cl)cc4Cl)n[nH]3)CC2)n1", "Potency": "inactive"}
{"smiles": "Nc1nc2ccc([N+](=O)[O-])c(N)c2s1", "Potency": "inconclusive: 89.1 µM [inhibitor, partial curve, poor fit]"}
{"smiles": "Cc1ccc(S(=O)(=O)n2c([N+](=O)[O-])cnc2C)c(C)c1C", "Potency": "inconclusive: 44.7 µM [inhibitor, partial curve, poor fit]"}
{"smiles": "O=C(CC1CCCCC1)NCCOc1ccccc1", "Potency": "inconclusive: 89.1 µM [inhibitor, partial curve, poor fit]"}
{"smiles": "Cc1ccc(S(=O)(=O)c2cc3c(=O)n4ccccc4nc3n(Cc3ccco3)c2=N)cc1C", "Potency": "inconclusive: 70.8 µM [inhibitor, single point]"}
{"smiles": "O=C(CCSCCC(=O)NCc1ccco1)NCc1ccco1", "Potency": "inconclusive: 44.7 µM [inhibitor, partial curve, poor fit]"}
{"smiles": "COc1ccc(CNC(=O)c2ccc3c(c2)NC(=O)C(CS(=O)(=O)Cc2ccccc2Cl)N3)cc1", "note": "(centres undefined)", "Potency": "inactive"}
{"smiles": "O=C(CN(C(=O)CCC(=O)Nc1ccccn1)c1ccc(F)cc1)NCc1ccc(F)cc1", "Potency": "inactive"}
{"smiles": "COc1cc(OC)cc(C(=O)Nc2ccc3oc(-c4ccc(Cl)cc4)nc3c2)c1", "Potency": "inactive"}
{"smiles": "COc1ccc(C(=O)CCN2CCN(c3ccccc3F)CC2)cc1", "activity change, negative = inhibition": "inactive: 11.9% [at 11.4 µM]"}
{"smiles": "O=C(CN1C(=O)/C(=C/c2ccccc2F)Sc2ccccc21)NCc1cccnc1", "Potency": "inconclusive: 70.8 µM [inhibitor, partial curve, poor fit]"}
{"smiles": "Cc1cccc(NC(=O)c2oc3ccc(S(=O)(=O)N4CCOCC4)cc3c2C)c1C", "Potency": "inactive"}
{"smiles": "Nc1[nH]c(=O)[nH]c(=O)c1N=Cc1ccccc1", "Potency": "inconclusive: 79.4 µM [inhibitor, single point]"}
{"smiles": "CCOC(=O)c1c(NC(=O)c2ccccc2Br)sc2c1CCc1ccccc1-2", "Potency": "inconclusive: 56.2 µM [inhibitor, partial curve, poor fit]"}
{"smiles": "Cc1cc(=O)n2c(C(=O)Nc3ccc(F)c(Cl)c3)c(C(=O)Nc3cccc(C)c3C)sc2n1", "Potency": "inconclusive: 100 µM [inhibitor, partial curve, poor fit]"}
{"smiles": "CCCCNC(=O)c1sc(=S)n2c1[nH]c(=O)c1ccc(C(=O)NCCc3ccc(OC)c(OC)c3)cc12", "Potency": "inconclusive: 25.1 µM [inhibitor, full curve, poor fit]"}
{"smiles": "COc1ccc(C2/C=C\\CC(NC(=O)OCC3c4ccccc4-c4ccccc43)CC(=O)N2Cc2ccccc2F)cc1", "note": "(centres undefined)", "Potency": "inconclusive: 79.4 µM [inhibitor, single point]"}
{"smiles": "O=C(Nc1ccc2nn(-c3ccccc3)nc2c1)c1ccc2c(c1)OCO2", "Potency": "inconclusive: 17.8 µM [inhibitor, full curve, poor fit]"}
{"smiles": "CC(=O)Nc1nc(C)c(-c2csc(Nc3ccccn3)n2)s1", "Potency": "inconclusive: 44.7 µM [inhibitor, partial curve, poor fit]"}
{"smiles": "Cc1ccc2c(c1)-c1c(c(C(=O)NCCc3ccccc3)nn1C)CS2", "Potency": "inactive"}
{"smiles": "CCCCN(CC)CCCNC(=O)C1CCN(c2nc3ccc(CC)cc3s2)CC1", "Potency": "inactive"}
{"smiles": "COCCn1c(SCC(=O)c2c(N)n(C)c(=O)n(C)c2=O)nc2ccccc21", "Potency": "inconclusive: 50.1 µM [inhibitor, partial curve, poor fit]"}
{"smiles": "Cc1ccc2c(=O)cc(C(=O)Nc3ccc(S(=O)(=O)Nc4onc(C)c4C)cc3)oc2c1", "Potency": "inconclusive: 79.4 µM [inhibitor, single point]"}
{"smiles": "CC(NC(=O)c1ccc(N2CCCC2)c([N+](=O)[O-])c1)c1ccc(S(N)(=O)=O)cc1", "note": "(centres undefined)", "Potency": "inactive"}
{"smiles": "CC(=O)N/N=C\\c1ccccc1OC/C=C/c1ccccc1", "Potency": "inactive"}
{"smiles": "CCC1Nc2ncnc(N3CCOCC3)c2N(Cc2ccccc2)C1=O", "note": "(centres undefined)", "Potency": "inactive"}
{"smiles": "Cc1ccc(SCCC(=O)OC(C(=O)NC(N)=O)C(C)C)cc1", "note": "(centres undefined)", "Potency": "inconclusive: 17.8 µM [inhibitor, full curve, poor fit]"}
{"smiles": "Cc1ccc(NC(=O)/C=C/c2ccco2)cc1S(=O)(=O)N1CCCCCC1", "Potency": "inactive"}
{"smiles": "O=C(Nc1ccc(N2CCCC2)cc1)c1cccc(F)c1", "Potency": "inconclusive: 100 µM [inhibitor, single point]"}
{"smiles": "O=C(Nc1c(-c2ccccc2)nc2ncccn12)c1cc2ccccc2oc1=O", "Potency": "inconclusive: 89.1 µM [inhibitor, single point]"}
{"smiles": "O=C(COc1ccccc1)NNc1c2ccccc2nc2ccccc12", "Potency": "inconclusive: 79.4 µM [inhibitor, single point]"}
{"smiles": "Cc1nc2ccc(NC(=S)N3CCN(c4ccccn4)CC3)cc2nc1C", "Potency": "inconclusive: 79.4 µM [inhibitor, single point]"}
{"smiles": "CCc1ccc(C2C(C#N)=C(N)SC(N)=C2C#N)cc1", "Potency": "inconclusive: 28.2 µM [inhibitor, full curve, poor fit]"}
